The RNAGym collection of RNA variant scans (doi:10.7554/elife.90254)
Read counts are not given, so values of variants with three or more changes are uncertain.

B1: LINE1-mini (parent)
chain: GGCAGAGCUCAACACAGCGUGGCAAAGUGGCUGUGGCUAGACUGCC

Variants of: B1
Experiment: self-cleavage, relative activity (ratio to wild type); higher = more cleavage; in vitro, sequencing; the parent is a self-cleaving ribozyme

Variant | self-cleavage
C8A C15G C31G | 0.65
C8A C13U C31U G44U | 0.15
C8A C10G C45A | 0.02
C8A A24U U32G G44U | 0.36
C8A C10A G33U A41C | 0.02
C8A A26C A39G A41U | 0.03
C8G G22A G27C | 0.02
C8A A14G G19U G27U | 0.27
C8A G22U A39G | 0.04
C8A G17C G29C G35A | 0.13
C8A C13G A14U U34A G35A G44A C46U | 0.22
C8A G19U A39C | 0.04
C8A A25U G33U G40A | 0.16
G7U U9G C15U U43C | 0.09
C8A U28A U38A A39G | 0.08
C8A A11G C15A A25G C45U | 0.06
C8G A16U G19U U34C A41U | 0.01
C8G A25U C42G | 0.06
C8G A12U C18U A24U A25G | 0
C8A C10G G17A U38C G40C | 0.01
C8A G17C A26U G27A | 0.08

Variant | self-cleavage
C8A A25G U28G G33C G35C C42U G44U | 0.11
C8A C10A G27C A39U | 0.02
C8G A11U A16G G19U G27C A39U | 0
C8A G19U C31A G36A G44U | 0.02
C8A A11U A14U | 0.04
C8A G35A C42U | 0.08
C8A G17C C42A C45A | 0.09
C8G G27C A39G G40U C42G | 0.01
C8A A11G G19A G30U C45G | 0.03
C8A U20A G33U U34A U38A | 0.05
C8A U9G A12C G21U C46U | 0.01
G7U U28C C31U | 0.03
C8A U9G G29U | 0
C8G C13A C23A | 0.02
G7U U34C A41C | 0.19
C8A C18U C45A | 0.07
C8A G17A G33U G35C C42A | 0.28
C8G A16G G27A G40U | 0.04
C8A U9C G44U | 0.16
C8G C15A G19C | 0.03
C8A G22C A41C | 0.11

Variant | self-cleavage
C8G A24C G35U C46A | 0.01
C8A A11U A12C G40A C42A C46U | 0
C8A G21U A26G | 0.38
C8A G21A C37G | 0.7
C8A G21C C37U U38A C45U | 0.23
C8A U43G C45U | 0.19
C8A G44C C46G | 0.58
C8A G17A C31U U32A | 0.07
C8G A39U C42G C45U | 0
C8G C10U U34G G40C | 0
C8A U9C G27U | 0.07
C8A G21U G27C G33C U34A G40A | 0.01
C8G C13U G27A | 0.13
C8A C10A A11C | 0.06
C8A C15U G40A | 0.09
C8A C18G G19C U20A | 0.1
C8A C13A U20A A25G U38A | 0.06
C8G C10A U20C A39U | 0
C8A U9A G21C A24U U28A C45G | 0.06
C8A G17A C23U U32G | 1.06
C8A A25C U43A | 0.01

Variant | self-cleavage
C8A G30A G40A C42A U43G | 0.26
G7U U34G G40U | 0.13
C8G A14U C31U | 0.01
C8G A14U G17U | 0.04
C8A G22A G33A U34C G36U A41C | 0.01
C8G A11U A24C | 0.03
C8G A25U C45U | 0.02
C8G C15A U20A G22A C37G | 0.02
C8G C15A C42G | 0.03
G7U U9G C42U C46G | 0.01
C8A A12C G21U C23G G29U | 0.02
C8G C18A G21U | 0.1
C8G C45G C46A | 0.01
C8A A12C A24G C45A | 0.04
C8A C10A A24C | 0.08
C8G G19U G29A C31A | 0.07
C8A C23A U28C G33A A41U | 0.27
G7U U20A U38A | 0.03
C8G G17A C18A G21U G22A | 0
C8G C37U U38G | 0.01
C8A G21A G27C | 0.26
